“And” between values parts separate entries of the source, which are not always exact repeats. Equal entries are not always repeated. Among all 420,000 compounds or so, about 64,000 (15%) were called active. The inconclusive results got no clear call from the source; some entries with a clear call stand among them for comparison. The call rests on the fitted dose curve; in most records, active means well fitted inhibition curve with a large enough effect; inconclusive means small, poorly fitted or top-dose-only effect; inactive means flat fitted curve, though single readings scatter. Potencies beside an inconclusive call are fits to weak or partial responses and may not hold up.
Test: qHTS for Inhibitors of human tyrosyl-DNA phosphodiesterase 1 (TDP1): qHTS in cells in absence of CPT; further: nearly all actives have a fitted effect of over 55% in size
Settings: DT40 Tdp1-/- hTDP1 cells, no CPT, ATP luminescence, 48 h; series mostly up to 46.2 µM
How it was run: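 Stably hTDP1-transfected Tdp1-null chicken DT40 cells were treated with library compounds minus camptothecin and grown for at least 48 hr at 37 °C, after which cellular ATP was quantified by luminescence.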
For CC(C)NC(=O)C1(C)CCN1Cc1ccc(Cl)cc1 (configuration not stated), the Potency was inconclusive: 25.9 µM [inhibitor, single point]. With Clc1ncccc1OCc1ccccc1 the Potency was “inactive”. For CCC(C)(C)NC(=O)C(c1cccn1C)N(Cc1ccc(C)cc1)C(=O)Cn1nnc2ccccc21 (configuration not stated), the Potency was inconclusive: 9.2 µM [inhibitor, partial curve]. With CCOC(=O)c1ccccc1NC1CC(=O)N(c2ccccc2C)C1=O (configuration not stated) the Potency was inconclusive: 29.1 µM [inhibitor, single point]. With Cc1onc(-c2c(F)cccc2Cl)c1C(=O)Nc1nccs1 the Potency was inconclusive: 20.6 µM [inhibitor, partial curve]. In the case of CCN(CC)S(=O)(=O)c1ccc(C)c(NC(=O)CSc2nc3ccccc3[nH]2)c1, the Potency is reported as active: 23.1 µM. For CCn1c2ccccc2c2cc(NC(=O)COc3cccc(C)c3)ccc21, the Potency was inconclusive: 29.1 µM [inhibitor, single point]. With COc1ccc(CC(=O)Nc2cccc(-c3ccc4nncn4n3)c2)cc1OC the Potency was active: 14.6 µM. In the case of CC(C)Cc1cc(C(=O)NCC2Cc3cc(F)cc(-c4ccccn4)c3O2)no1 (configuration not stated), the Potency is reported as “inactive”. In the case of CCOC(=O)C1CCN(c2cc(C)nc3cc(-c4cccc(F)c4)nn23)CC1, the Potency is reported as inconclusive: 18.4 µM [inhibitor, partial curve]. In the case of CCOc1cc2[nH]c(=O)n(CCCC(=O)N3CCN(c4ccc(OC)cc4)CC3)c(=O)c2cc1OCC, the Potency is reported as active: 20.6 µM. With COc1ccc(-c2cn(-c3ccc(C)c(C)c3)c(=S)[nH]2)cc1OC the Potency was active: 16.4 µM. In the case of COc1ccc(NS(=O)(=O)c2cc(N)ccc2N2CCCC2)cc1, the Potency is reported as inconclusive: 18.4 µM [inhibitor, single point]. In the case of CSc1nnc(-c2ccco2)n1-c1ccccc1, the Potency is reported as inconclusive: 14.6 µM [inhibitor, partial curve, poor fit]. For C#CCOc1ccc(Br)cc1C(c1c(C)[nH][nH]c1=O)c1c(C)[nH][nH]c1=O, the Potency was “inactive”. With CC(=O)c1ccc(N(CC(=O)NC2CCCC2)C(=O)CNC(=O)c2cccs2)cc1 the Potency was “inactive”. With C[C@H](CO)N1C[C@H](C)[C@@H](CN(C)S(=O)(=O)c2ccccc2)Oc2c(NC(=O)Nc3ccc4c(c3)OCO4)cccc2C1=O the Potency was inconclusive: 29.1 µM [inhibitor, single point]. In the case of COc1ccc(C)cc1NC(=O)C1CCCN(S(=O)(=O)c2ccc3[nH]c(=O)ccc3c2)C1 (configuration not stated), the Potency is reported as inconclusive: 16.4 µM [inhibitor, single point] and inconclusive: 23.1 µM [inhibitor, single point]. With O=C1NC(=O)C2(CCCC2C(=O)O)N1 (configuration not stated) the Potency was “inactive”. In the case of CCCCn1c(N)c(N(CCOC)C(=O)COC(=O)COc2cc(C)c(Cl)cc2C(C)C)c(=O)[nH]c1=O, the Potency is reported as “inactive”. With CCOC(=O)c1c(C)[nH]c(C(=O)OCC(=O)N2CCN(S(=O)(=O)c3ccc(C)cc3C)CC2)c1C the Potency was inconclusive: 18.4 µM [inhibitor, single point]. For Cc1c(NC(=O)c2ccc([N+](=O)[O-])o2)cccc1-c1nc2ncccc2o1, the Potency was inconclusive: 29.1 µM [inhibitor, single point]. For Cc1nnc(NC(=O)CCS(=O)(=O)c2ccccc2)s1, the Potency was inconclusive: 25.9 µM [inhibitor, single point]. With Cc1ccc(C(=O)NCCCNc2ccccc2[N+](=O)[O-])cc1 the Potency was inconclusive: 29.1 µM [inhibitor, single point]. For CC1C(=O)N(Cc2cn(CC3CCCCC3)nn2)CCS(=O)(=O)N1Cc1ccc(-c2cccc(N(C)C)c2)cc1 (configuration not stated), the Potency was active: 7.31 µM. For CC1CCN(C(=O)CCCl)c2ccccc21 (configuration not stated), the Potency was “inactive”. In the case of O=C(COc1coc(CN2CCc3ccccc32)cc1=O)Nc1ccccc1, the Potency is reported as inconclusive: 29.1 µM [inhibitor, single point]. With CC(C)Cc1nc2oc3c(Cl)ncnc3c2c2c1CCCC2 the Potency was inconclusive: 25.9 µM [inhibitor, single point]. With Oc1c(N=Nc2ccccn2)ccc2ccccc12 the Potency was active: 1.64 µM. With CNC(C)C#Cc1ccc2sc3cccc(OC)c3c(=O)c2c1 (configuration not stated) the Potency was active: 14.6 µM. In the case of CCC(=O)Nc1cccc(C2=NOC3(C2)C[C@@H](C(N)=O)N(C(=O)COc2ccc(Cl)cc2)C3)c1 (some centres not stated), the Potency is reported as “inactive”. For COc1ccc(C(CNC(=O)c2ccc(NS(=O)(=O)c3ccc(F)c(C)c3)cc2)N(C)C)cc1 (configuration not stated), the Potency was inconclusive: 18.4 µM [inhibitor, single point]. For COC(=O)NC1CCC(CC2CCC(NC(=O)OC)CC2)CC1 (configuration not stated), the Potency was inconclusive: 28.2 µM [inhibitor, single point]. For COC(=O)[C@H](Cc1c[nH]c2ccccc12)NC(=O)NCc1ccccc1, the Potency was “inactive”. For COc1ccc(C(=O)CC(C(=O)O)c2ccc(OC)c(OC)c2)cc1OC (configuration not stated), the Potency was “inactive”. For Cc1ccc(OCC(=O)N/N=C/c2cccnc2)cc1C, the Potency was “inactive”. In the case of Cn1c(=O)c2c(nc(N3CCc4ccccc4C3)n2C)n(C)c1=O, the Potency is reported as inconclusive: 14.6 µM [inhibitor, single point].

Source: PubChem BioAssay AID686978 (National Center for Advancing Translational Sciences (NCATS), 2013)
Potency means the concentration at half of the fitted maximal effect; tags describe the fitted curve by direction and shape.
